This note sets out measurements from publication PMC12136788.

The list shows a part of the results.

Sequences and labels used below:
T1: UNK ZnF1-3 (human, UniProt Q9C0B0 31-174)
T1 sequence: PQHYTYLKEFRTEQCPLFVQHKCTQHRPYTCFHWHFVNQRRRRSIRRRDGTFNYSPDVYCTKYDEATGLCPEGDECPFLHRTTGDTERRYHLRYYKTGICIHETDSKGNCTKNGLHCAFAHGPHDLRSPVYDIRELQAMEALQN

B1: 66481216_66481824_669_CDS_ENSG00000173898_ENST00000309996|human|control|control (ssRNA)
RNA: GGGAGUUCUACAGUCCGACGAUCCCGGUGUUUAUGCACGAUGGCGUUGAAAGCUAGUCCAUCUCUCCAGCUGGUGGUGAAGUUGUGUACAUUGACGUUGGGAUAACCUGCAGUCUUCAUCUGGCACCACAGAAGCAGGGCAUCCAACAGAGGAUUGAGCAUCA
B2: 163842845_163842965_1594_3pUTR_ENSMUSG00000018326_ENSMUST00000018470|mouse|control|control (ssRNA)
RNA: GGGAGUUCUACAGUCCGACGAUCAGCCCUCAACCACAGGCAGAAUUACUGUGAGUUACCAAACUCAGGAUGCCGGUGGUCAGCAUCUCACCAAGUCCCAGCAUCACCACAGAAUCUCUAGAACUUUCUGUACAGCUUUACAACCAACAGAGGAUUGAGCAUCA
B3: chr1:39494564:39494565:+_ENSG00000168653_ENST00000372967|hu_hu|hu_hu_hu_mus_True|48_88 (ssRNA)
RNA: GGGAGUUCUACAGUCCGACGAUCAUGCAUUCGCCUCAUCGUUUUGUGCCGAAGCAAGCACUCUUCGAAGUCAUCGAACUCUAUCUUGCACUCUUUCUUCGCCCGGGUCCCACCGAUCCCGUGUGCACACUCUAUCCACUCUUUCAACAGAGGAUUGAGCAUCA
B4: chr4:147104108:147104109:+_ENSG00000164167_ENST00000515311|hu_hu|FALSE|FALSE (ssRNA)
RNA: GGGAGUUCUACAGUCCGACGAUCCGAUAAUCCACUCCAGAAUUUAAUUUUACCACAACUGGUCGUCCGAUGAUUUGCUUUAAGAAGUCACUAGGGGUUUGCUUCCGAAGACUCAUUUUAACAAUCCUCGCCGGCGGGAACCAGCAACAGAGGAUUGAGCAUCA
B5: chr7:135612270:135612271:-_ENSG00000105887_ENST00000393085|hu_mus|hu_hu_hu_mus_False|1_98 (ssRNA)
RNA: GGGAGUUCUACAGUCCGACGAUCGUUUUUUUCUGAGUAAGUAUUACGUACUUCAGUGGAAAACAAAACUUAACCUUUUAUUAAUGCGUGUUGUACCAAAAGCAGACAUUUUAGCUUCAUUUAUUCAAAAAUAUUAAGAACAUUCAACAGAGGAUUGAGCAUCA
B6: chr11:30433043:30433044:-_ENSG00000066382_ENST00000358117|hu_hu|FALSE|FALSE (ssRNA)
RNA: GGGAGUUCUACAGUCCGACGAUCUCACAUUCCAAUAGGGCAUUUAGAGCUUCAGGAACCCUGUGGGUUUGGAAGGUCAAAUAUAAUUGGAGGGUUGGUCGGUUGAAAGCUGACUGUACACGUCGAGGCAUUGAUGUACGUUGUCAACAGAGGAUUGAGCAUCA
B7: chr7:149068622:149068623:-_ENSMUSG00000025139_ENSMUST00000001950|mus_hu|mus_mus_mus_hu_False|18_98 (ssRNA)
RNA: GGGAGUUCUACAGUCCGACGAUCGUGAGGCCUCUGAGUGAGGUUCCUGGUCUGUCCUGGGUUAGAGUUGUUAAUAUCACGGAACAUACCAUCUAGAACGUUCCAGUCCCGCCUGACCAUCCACCCUCCAAUGGAGAAGAAAUCCAACAGAGGAUUGAGCAUCA
B8: chr6:170627217:170627218:+_ENSG00000112584_ENST00000537664|hu_hu|FALSE|FALSE (ssRNA)
RNA: GGGAGUUCUACAGUCCGACGAUCGUUACCUUUUUUGUCAAAGUUCUCUUUUACAGAGGUGUAGGACGAUAAGCAUUUGUACCUAAAGCUUUCAAACAUGCCCUCUGGGAUUAUGUCGUUGCCAAGGAGGCAGGCCAGAAGAGGCAACAGAGGAUUGAGCAUCA
B9: chr9:45776876:45776877:-_ENSMUSG00000003131_ENSMUST00000172450|mus_hu|FALSE|FALSE (ssRNA)
RNA: GGGAGUUCUACAGUCCGACGAUCGAUCAGUUCAUGCAGGGGUUUGCAGAUCUUUGCAUAGCCCCCUCCUGUCAGAUGCAGAAAAUCAAACAUGUCGUGGCAGGAGAUGGCACCGUCCGAGUGCACAAAACCCCCGUCGGUAUCCAACAGAGGAUUGAGCAUCA
B10: chr6:40197388:40197389:+_ENSMUSG00000057716_ENSMUST00000061740|mus_mus|mus_mus_mus_hu_False|58_98 (ssRNA)
RNA: GGGAGUUCUACAGUCCGACGAUCGAGACACUGGGGUGGAUGGCACCCACCUCUGUUUGGGUGCUAGCCACUAAGACAGCUAUUUUGGGAUUCAUGGCCUUGAAUAUCAAGAGGGAAAGGAAGAGGAUGGAAAGAGUCAAGAGUCAACAGAGGAUUGAGCAUCA
B11: chr4:184614817:184614818:+_ENSG00000168538_ENST00000334690|hu_mus|FALSE|FALSE (ssRNA)
RNA: GGGAGUUCUACAGUCCGACGAUCAGUGAGCUUCACAUCCCUGAUUGGGGACUUCUCGUGGGACUGAACAGUGACAACCAAACAGUACAUCUCAUUCAUUAGAGCAGGGGGCUCGUGUCGCAGGUGGACAGAGAUGUUUGGGACCAACAGAGGAUUGAGCAUCA
B12: chr15:31385891:31385892:-_ENSMUSG00000039100_ENSMUST00000090227|mus_mus|FALSE|FALSE (ssRNA)
RNA: GGGAGUUCUACAGUCCGACGAUCAUUCACUCCUAAACAGACACCCCUAGGCCUUAGUCACUCAUUUCCAUCUAAGGUUCUAUAGGAUUGUCAUGAUUACAAAAUGAGGCACUCAGACAGAUAGACAGGAAUGGAGACAUACAUCAACAGAGGAUUGAGCAUCA
B13: chr7:151048522:151048523:+_ENSG00000013374_ENST00000566856|hu_hu|motif|central (ssRNA)
RNA: GGGAGUUCUACAGUCCGACGAUCUUGCUUCUUAUUUAUGACAAUUUUGAUAUAAUUUUCUUGAAGUCCAAAGGUUUCAGCGGUUUUGGACCUCAGUUCUCUGCCAGUGAUGUGCAAUCGGGUCUCCAACAAGUUUUUCCUAUCCAACAGAGGAUUGAGCAUCA
B14: 13527528_13541243_6213_CDS_ENSMUSG00000020576_ENSMUST00000042953|mouse|control|control (ssRNA)
RNA: GGGAGUUCUACAGUCCGACGAUCUUCAGCACAGAAAGGCCGCAGCCACUGCAGCACGUCUUCAGCAGACACCAGCUCCUCCCCAUUGUCCACACUGGUGCGGACUGCCCCAACAACACCUUCUAGGACCUGGAGGGGGUCGCGCAACAGAGGAUUGAGCAUCA
B15: chr16:45382771:45382772:-_ENSMUSG00000022661_ENSMUST00000163230|mus_mus|mus_mus_mus_hu_True|88_88 (ssRNA)
RNA: GGGAGUUCUACAGUCCGACGAUCCUGGGUCAUGUUAUAAGACAAAUGGAUAGGGAGGGCAUGCUUCUCAAAAAAUGUGAGCUAUUGUCUAAGACUAACAAUAUUUAUCUAGCUAUAAAAAUAAGUUAAAUGAAUAAGUUAAGACAACAGAGGAUUGAGCAUCA
B16: chr20:57485784:57485785:+_ENSG00000087460_ENST00000306090|hu_hu|FALSE|FALSE (ssRNA)
RNA: GGGAGUUCUACAGUCCGACGAUCGUCACGGCAGUCGUUGAACACACGGCGGAUGUUCUCAGUGUCCACAGCGCAGGUGAAAUGAGGGUAGCAGUAGUGACGCCCAUCUCCACUGGCAGUGCUGAUCCUCAGAAACUCAUCUCGCAACAGAGGAUUGAGCAUCA
B17: chr2:42509997:42509998:+_ENSG00000143924_ENST00000318522|hu_mus|hu_hu_hu_mus_True|1_78 (ssRNA)
RNA: GGGAGUUCUACAGUCCGACGAUCUCGCUGAGUCCUCUCCUCAUAAUUAAACAGGACUACUACUGAUGCGAUAAAAUAAACUAUCUCCCCUGUGGGAAGCAGGUAUACAUUCGCUCUACAGUCCUUUCCUCGAUAACCAUAUGCCAACAGAGGAUUGAGCAUCA
B18: chr4:103806524:103806525:+_ENSG00000145354_ENST00000273986|hu_hu|motif|central (ssRNA)
RNA: GGGAGUUCUACAGUCCGACGAUCUUCAUUGUGUUUAUUAUGUGAACCAUCGCAGGCAGGAAACGUUUUAGAACGCCAACACCGGCAAUAAGCUGCUUUAGUAAGACACAAAUCUUCAAUGUUUAUUUCAUUCACUACUUUCGGCAACAGAGGAUUGAGCAUCA
B19: chr4:106585523:106585524:+_ENSMUSG00000061887_ENSMUST00000030367|mus_mus|FALSE|FALSE (ssRNA)
RNA: GGGAGUUCUACAGUCCGACGAUCAGGUCUGUGCAGAUUUCUGUGCUCCUACGUGCAGUAAAUAUUCGUAGACGUAUAAAGCUAACUUUUCCCGAGCCUGCCCGUCCGAGGGCACCGCCGAGCCUUUGCCUUUGGCAAACAUGGCAACAGAGGAUUGAGCAUCA
B20: chr2:27656205:27656206:+_ENSG00000115216_ENST00000379852|hu_mus|motif|central (ssRNA)
RNA: GGGAGUUCUACAGUCCGACGAUCACAGAAGUCAGGCCAGGAGCUAAAGAUGAGGAUUCUACCUUUGGGUCUGAGCCACUGCUGACGGCUGUUUGGGACUCCCCUUCCGACAUGCUGGAAUGAACACUCAGCCUCCCGACUCCGCAACAGAGGAUUGAGCAUCA
B21: chr7:75932113:75932114:+_ENSG00000106211_ENST00000248553|hu_hu|hu_hu_hu_mus_False|88_98 (ssRNA)
RNA: GGGAGUUCUACAGUCCGACGAUCCUGCGACCACUCAUCCGGCAGCCGGGGCAGCCCGAAAGCUUGAUCGAAGAGGCGGCUGUGUGCAGGGUACCAGUCCCGGAAUGGUUCCCAGCUCGGGCUCCGCAGCAGCGAGAAGGGCACCAACAGAGGAUUGAGCAUCA
B22: chr1:58468927:58468928:-_ENSMUSG00000026034_ENSMUST00000148330|mus_mus|mus_mus_mus_hu_False|28_38 (ssRNA)
RNA: GGGAGUUCUACAGUCCGACGAUCAAUUACUGAAAAAGAUGUUCAUUACCUUAGCUAUGUACUUAAUGAACCAAAUUACCCAAACAAAAUAAACAUGUUUACAAAUUAAGCUAUACAAUUUACAAAGCUGUACAAAAUAACUUACAACAGAGGAUUGAGCAUCA

The target in this assay is T1, UNK ZnF1-3. Description: nsRBNS (natural sequence RNA bind-n-seq); RBNS binding buffer (assumed for nsRBNS): 25 mM Tris pH 7.5, 150 mM KCl, 3 mM MgCl2, 0.01% Triton X-100, 500 ug/ml BSA, 20 U/ml SUPERase-In, 4 C; UNK is unkempt and MSI1 is Musashi-1; names of the RNAs are library labels; protein concentration not given here; high values mean tight binding.
Consider B1, for which the binding signal is 0.959 enrichment R. The figure for B2 is 1.73 enrichment R; for B3 it is 0.598 enrichment R; for B4 it is 1.14 enrichment R. The figure for B5 is 0.782 enrichment R; for B6 it is 0.97 enrichment R. The figure for B7 is 0.8 enrichment R; for B8 it is 1.04 enrichment R; for B9 it is 0.363 enrichment R. On to B10, for which the binding signal worked out at 1.55 enrichment R. The molecule B11 displayed a binding signal of 1.78 enrichment R. The molecule B12 registered a binding signal of 1.14 enrichment R. In turn, B13 showed a binding signal of 0.775 enrichment R.

The molecule B14 came in with a binding signal of 0.899 enrichment R. In turn, B15 returned a binding signal of 2.21 enrichment R. For the molecule B16, the binding signal was determined as 0.927 enrichment R. The figure for B17 is 0.851 enrichment R; for B18 it is 0.931 enrichment R; for B19 it is 0.723 enrichment R. In turn, B20 returned a binding signal of 1.32 enrichment R.

For the molecule B21, the binding signal amounted to 1.35 enrichment R. For the molecule B22, the binding signal was determined as 0.561 enrichment R.
